In article PMC5836133:
The list shows a part of the results. At the low end of the ranking, values are background and their order means little.

The sequences below were run on T1, GST-NbGlk1(82-244) (assay: protein-binding microarray). Settings: NbGlk1 is a Golden2-like transcription factor of Nicotiana benthamiana; high values mean tight binding; most listed sequences are background and not binding sites; double strand, one strand shown.
T1 sequence: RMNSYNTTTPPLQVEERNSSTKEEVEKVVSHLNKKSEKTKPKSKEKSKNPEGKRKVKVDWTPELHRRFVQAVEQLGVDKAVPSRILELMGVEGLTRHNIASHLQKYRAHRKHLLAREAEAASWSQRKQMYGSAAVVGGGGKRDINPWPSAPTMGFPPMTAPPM
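Note: rank-based score ranging −0.5 to +0.5 with E above 0.45 taken as significant binding.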

| Sequence | binding signal |
| --- | --- |
| CACTCGCG | -0.0641 E-score |
| ATGTCCTC | -0.195 E-score |
| AGTATAAA | 0.127 E-score |
| AACGTAGG | -0.0755 E-score |
| ATTTGTTA | 0.237 E-score |
| CAACACTC | -0.089 E-score |
| ATTCACCG | 0.0709 E-score |
| ACTATAGT | 0.00472 E-score |
| AAGTCGCA | -0.0788 E-score |
| ACGACGCG | -0.115 E-score |
| ACAACCCA | -0.09 E-score |
| AAGGAGAA | -0.00191 E-score |
| ACCCTAGC | -0.0823 E-score |
| AGTGGCGG | -0.109 E-score |
| AGACGACG | -0.219 E-score |
| CAACGCCC | -0.201 E-score |
| ACTAGGTA | -0.106 E-score |
| ATGTACGA | 0.0471 E-score |
| AAATCGTA | 0.373 E-score |
| ACGCTCAC | -0.144 E-score |
| AATAGTCT | -0.0165 E-score |
| ACAAGTCA | -0.103 E-score |
| AGGTGAAT | -0.0087 E-score |
| ATGGCTTG | -0.0401 E-score |
| CACTATAC | 0.084 E-score |

| Sequence | binding signal |
| --- | --- |
| ACATCCGT | 0.0593 E-score |
| ACGGGGCT | -0.141 E-score |
| AATGGCCC | -0.254 E-score |
| ATATATAT | 0.244 E-score |
| AACAGCTT | -0.0586 E-score |
| AATTTGCC | 0.162 E-score |
| ACTCAACT | -0.0644 E-score |
| AGATGAGG | -0.155 E-score |
| AATCCAGC | 0.364 E-score |
| AACGAAGG | -0.157 E-score |
| ACGCCTGG | -0.168 E-score |
| AACACACG | 0.0279 E-score |
| ACCACAGT | -0.0717 E-score |
| ACTGTTAA | 0.0611 E-score |
| ATGATCAG | 0.0902 E-score |
| ACGATAAG | 0.0808 E-score |
| AAGTCGAG | -0.226 E-score |
| ACAGGAAA | 0.137 E-score |
| AATTGCGG | 0.199 E-score |
| CAAGAAGG | -0.158 E-score |
| ACCGTATG | -0.0833 E-score |
| ACGGCGCT | -0.191 E-score |
| AAATCAGA | 0.315 E-score |
| ACCGAATC | 0.363 E-score |
| ACCGTTCA | -0.0995 E-score |

| Sequence | binding signal |
| --- | --- |
| ATTCTAGC | 0.157 E-score |
| CACCCTAC | -0.169 E-score |
| ACGCCGAG | -0.126 E-score |
| AATCCGTC | 0.39 E-score |
| ACAAAACT | -0.00477 E-score |
| AGACGTCA | 0.0486 E-score |
| AGTGCCAT | -0.103 E-score |
| AAGCCAAT | -0.0167 E-score |
| AACAGGGT | -0.0616 E-score |
| AGCCTGGG | -0.309 E-score |
| AAGGTCCC | -0.278 E-score |
| AAAGTCAG | -0.0648 E-score |
| AGAGATCC | 0.346 E-score |
| AGCTGCCA | -0.163 E-score |
| AACTCCTG | -0.193 E-score |
| ACAAGCAG | 0.0175 E-score |
| AGTACCCG | -0.227 E-score |
| CAAACTAC | 0.0598 E-score |
| ACCGCACC | -0.0827 E-score |
| CACTGAAA | 0.109 E-score |
| AGGCTGAG | -0.189 E-score |
| AAAACCTA | 0.069 E-score |
| ACCCGCCT | -0.0782 E-score |
| ATTGCTCA | 0.177 E-score |
| AGGATGGA | -0.122 E-score |

| Sequence | binding signal |
| --- | --- |
| AGACGGGG | -0.231 E-score |
| AGCAAATA | 0.221 E-score |
| AGCGTCGG | -0.254 E-score |
| CAGATATC | 0.468 E-score |
| AAAAATGC | -0.00179 E-score |
| ATCGCGCG | 0.356 E-score |
| AGGGTATG | -0.0161 E-score |
| AAAAAAGC | 0.0454 E-score |
| ATTGCACG | 0.251 E-score |
| ATGGGTGG | 0.024 E-score |
| AGCATCCG | -0.159 E-score |
| ACAGTTTA | -0.099 E-score |
| ATGGCAAG | -0.114 E-score |
| AAATAGGA | 0.105 E-score |
| ACGCTAAT | -0.0991 E-score |
| ATGCCCTG | -0.141 E-score |
| ACCCTTGA | -0.244 E-score |
| ACCCGTAC | -0.232 E-score |
| AAGGTGCG | -0.236 E-score |
| ATTAGATG | 0.0767 E-score |
| ACCACATG | -0.135 E-score |
| ACGACAGC | -0.158 E-score |
| ACATCACC | -0.093 E-score |
| AATCCGAG | 0.384 E-score |
| ACGGGACG | -0.212 E-score |

| Sequence | binding signal |
| --- | --- |
| AAATAAAA | 0.273 E-score |
| CACCCATC | -0.0354 E-score |
| AATGCCGC | -0.226 E-score |
| AATAAGAG | -0.0692 E-score |
| AGTGTCCC | -0.212 E-score |
| ATTCCACG | 0.222 E-score |
| AATCGAAA | 0.32 E-score |
| CAAATAGG | -0.0755 E-score |
| ATATCGCC | 0.333 E-score |
| CAAGTCAG | -0.139 E-score |
| AGTCGGGA | 0.0164 E-score |
| ACGGTCAA | -0.0424 E-score |
| AGGTTGTC | -0.273 E-score |
| AAATTCTG | 0.235 E-score |
| ACTCCCTA | -0.0758 E-score |
| CAATTGAG | 0.0551 E-score |
| AAAGTCAA | -0.0347 E-score |
| AACACATG | -0.134 E-score |
| ACCAATAC | -0.0366 E-score |
| CAGAAAGA | 0.0913 E-score |
| AGCCTAAA | -0.11 E-score |
| ATGGACTC | -0.26 E-score |
| AAGGCATC | -0.19 E-score |
| ATCCGTAG | 0.0912 E-score |
| AAGGCGTC | -0.253 E-score |

| Sequence | binding signal |
| --- | --- |
| ACTCGTCA | -0.162 E-score |
| AGTAGGTA | -0.00443 E-score |
| AGTCAAGC | -0.192 E-score |
| ATGTTGTG | 0.116 E-score |
| CAGACGAC | -0.227 E-score |
| AAGCTGCG | -0.133 E-score |
| ACACCACG | -0.0144 E-score |
| AAACTAAC | 0.0376 E-score |
| ATGACAGG | -0.173 E-score |
| ATTGAGTC | 0.0227 E-score |
| AACATAGC | -0.0455 E-score |
| CAGCCCTG | -0.242 E-score |
| AGCGTAGG | -0.221 E-score |
| AAAGCCCT | -0.213 E-score |
| ACCGTCTG | -0.243 E-score |
| AGGAGGGA | -0.175 E-score |
| ATCTCATA | 0.291 E-score |
| ATGAAGAA | 0.14 E-score |
| AAGTTCTA | -0.0359 E-score |
| AAACGCAA | 0.248 E-score |
| ACTCGTAG | -0.0217 E-score |
| ACGGCACT | -0.15 E-score |
| AAAGTAGT | 0.00278 E-score |
| CAGAACTG | 0.119 E-score |
| AGTGCACA | -0.0902 E-score |

| Sequence | binding signal |
| --- | --- |
| CAATACGG | -0.00433 E-score |
| ACGTATCG | 0.223 E-score |
| ATTGCTTG | 0.145 E-score |
| AAGGTATA | -0.0471 E-score |
| ATGTCCAG | -0.104 E-score |
| AGTACGCG | -0.0852 E-score |
| CAGATCAG | 0.0747 E-score |
| CACCTTGG | -0.224 E-score |
| ATTGCGGA | 0.359 E-score |
| CAATATTG | 0.179 E-score |
| AAGGGGGG | -0.217 E-score |
| ATTAATTC | 0.0712 E-score |
| ATTTTACG | 0.213 E-score |
| AGGCACTC | -0.319 E-score |
| AATCGCAA | 0.359 E-score |
| AACTCCCG | -0.0679 E-score |
| AAGGAGTA | -0.078 E-score |
| AAGAAGAC | -0.14 E-score |
| CAAACAGG | -0.0305 E-score |
| AATGGGGC | -0.137 E-score |
| CACGACGA | -0.143 E-score |
| AAAACGCC | -0.205 E-score |
